# The other results are listed elsewhere or left out. Repeats are few or missing, and single values can be far off.
# How the values were obtained:
# Test in all cases: cell count relative to DMSO control; melanoma cells; higher = more viable cells
# Settings in all cases: library dose: standard library concentration; 72 h
# G361 = system: G361
# IPC-298 = system: IPC-298
# IST-MEL1 = system: IST-MEL1
# LB2518-MEL = system: LB2518-MEL
# LOXIMVI = system: LOXIMVI
# MEL-HO = system: MEL-HO
# MZ2-MEL = system: MZ2-MEL
# MeWo = system: MeWo
# RPMI7951 = system: RPMI7951
# RVH-421 = system: RVH-421
# SkMel28 = system: SkMel28
# SkMel2 = system: SkMel2
# SkMel30 = system: SkMel30
# SkMel5 = system: SkMel5
# UACC257 = system: UACC257
# UACC62 = system: UACC62
# WM115 = system: WM115
# WM1716 = system: WM1716
# WM1745 = system: WM1745
# WM3526 = system: WM3526
# 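Further: cells treated in 1,536-well plates, then fixed and DAPI-stained, with nuclei counted from automated high-throughput microscope images.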
Structure (SMILES),cell count (G361) [%],cell count (IPC-298) [%],cell count (IST-MEL1) [%],cell count (LB2518-MEL) [%],cell count (LOXIMVI) [%],cell count (MEL-HO) [%],cell count (MZ2-MEL) [%],cell count (MeWo) [%],cell count (RPMI7951) [%],cell count (RVH-421) [%],cell count (SkMel28) [%],cell count (SkMel2) [%],cell count (SkMel30) [%],cell count (SkMel5) [%],cell count (UACC257) [%],cell count (UACC62) [%],cell count (WM115) [%],cell count (WM1716) [%],cell count (WM1745) [%],cell count (WM3526) [%]
"CCc1ccc(CCOc2ccc(CC3SC(=O)NC3=O)cc2)nc1 (stereo not given) [pioglitazone] + CCN(CC)CCCCNc1ncc2cc(-c3cc(OC)cc(OC)c3)c(NC(=O)NC(C)(C)C)nc2n1 [PD173074] (first compound 10 µM, partner dose 0.5 µM)",103,89.4,99.2,88.1,95.3,97.3,93.3,96.8,92.5,100,66.7,89.4,99.6,96.7,98.2,96.4,93.7,85.4,83.1,82.7
"CN(NC(=O)CC(=O)NN(C)C(=S)c1ccccc1)C(=S)c1ccccc1 + O=S(=O)(c1ccccc1)N(CC(F)(F)F)c1ccc(C(O)(C(F)(F)F)C(F)(F)F)cc1 [T0901317] (first compound 0.03 µM, partner dose 7 µM)",22.1,71.1,36.2,17,64.9,72.8,118,14.9,82,57.2,3.27,65.4,90.5,66.5,74.6,39,17.2,77.7,36,68.3
"CN(NC(=O)CC(=O)NN(C)C(=S)c1ccccc1)C(=S)c1ccccc1 + O=C(Nc1ccccc1)c1cc([N+](=O)[O-])ccc1Cl [GW9662] (first compound 0.03 µM, partner dose 10 µM)",32.8,60.1,13.3,21.5,69.2,73.9,67.2,14.1,60.8,45.7,17.1,48.2,77.9,50.2,71.3,44.3,17,80.4,27.5,73.5
"NC(=O)c1ccc(N(C(N)=O)c2c(F)cccc2F)nc1-c1ccc(F)cc1F + C=CCNC1=C2C[C@@H](C)C[C@H](OC)[C@H](O)[C@@H](C)/C=C(\C)[C@H](OC(N)=O)[C@@H](OC)/C=C\C=C(/C)C(=O)NC(=CC1=O)C2=O [Tanespimycin] (first compound 2 µM, partner dose 0.01 µM)",72.3,106,68.4,110,89,86.7,134,95.7,31.6,101,53.9,118,95.4,57.3,95.6,64.1,28.3,99.6,59.1,90.3
"COc1cc2c(Oc3ccc4[nH]c(C)cc4c3F)ncnc2cc1OCCCN1CCCC1 [cediranib] + Cc1cc([N+](=O)[O-])ccc1NS(=O)(=O)c1cc(Cl)ccc1Cl [FH535] (first compound 2 µM, partner dose 5 µM)",64.7,58.8,70.6,82.1,72,58.4,68.3,82,66.3,61.8,61.1,91,72.9,75.2,66.2,78.7,75.6,77.4,82.8,76.7
"NC(=O)c1ccc(N(C(N)=O)c2c(F)cccc2F)nc1-c1ccc(F)cc1F + C#Cc1cccc(Nc2ncnc3cc(OCCOC)c(OCCOC)cc23)c1 [erlotinib] (first compound 2 µM, partner dose 4 µM)",70.4,61.3,99.7,62.7,98.1,65.9,63.9,52.6,66.6,90.4,74.2,90.3,64.2,57,103,74.3,67.1,99.8,45,66.4
"NC(=O)c1ccc(N(C(N)=O)c2c(F)cccc2F)nc1-c1ccc(F)cc1F + CC(=O)O[C@@]12CO[C@@H]1C[C@H](O)[C@@]1(C)C(=O)[C@H](O)C3=C(C)[C@@H](OC(=O)[C@H](O)[C@@H](NC(=O)OC(C)(C)C)c4ccccc4)C[C@@](O)([C@@H](OC(=O)c4ccccc4)[C@H]21)C3(C)C [Docetaxel] (first compound 2 µM, partner dose 0.0005 µM)",16.8,36.9,42.6,48.8,67.9,45.2,34.4,30.3,23,53.6,22.7,16.6,54.5,43.8,68.1,48.7,36.7,37.4,37.6,49.2
"NC(=O)c1ccc(N(C(N)=O)c2c(F)cccc2F)nc1-c1ccc(F)cc1F + Nc1ncn([C@H]2C[C@H](O)[C@@H](CO)O2)c(=O)n1 [decitabine] (first compound 2 µM, partner dose 0.5 µM)",73.7,56.2,76.7,75.8,79.3,80,80.7,58.8,68.9,76.8,87.6,116,114,60.4,96.4,61.9,63.7,87.1,83,102
"Cc1ccc(NC(=O)c2cccc(N(C)C)c2)cc1NC(=O)c1ccc(O)cc1 + O=S(=O)(c1ccccc1)N(CC(F)(F)F)c1ccc(C(O)(C(F)(F)F)C(F)(F)F)cc1 [T0901317] (first compound 10 µM, partner dose 7 µM)",67.2,68.9,86.4,105,171,76.9,88,89.7,72.3,91.6,72.4,84.9,90.8,59.6,80,80.9,94.3,113,64.7,78.3
"CCCCCCCCc1ccc(CCC(N)(CO)CO)cc1 [fingolimod] + O=C(Nc1cccc(Cl)c1)Nc1ncc(CCNc2ncnc3ccsc23)s1 [SNS314] (first compound 10 µM, partner dose 0.004 µM)",0.355,51.5,5.18,0.553,11.2,2.07,1.55,20.8,3.04,35,0.252,0.297,7.58,40.7,53.9,21.8,12,37.5,2.14,21.4
"CN(NC(=O)CC(=O)NN(C)C(=S)c1ccccc1)C(=S)c1ccccc1 + COc1cc(N2CCC(N3CCN(C)CC3)CC2)ccc1Nc1ncc(Cl)c(Nc2ccccc2S(=O)(=O)C(C)C)n1 [NVP-TAE684] (first compound 0.03 µM, partner dose 0.4 µM)",33.2,66.9,39.1,24.1,86.5,74,87.8,8.87,67.1,59.6,17.8,44.8,84.1,28,86.3,41.6,14.3,69.4,10.5,79.2
"Cc1ccc(NC(=O)c2cccc(N(C)C)c2)cc1NC(=O)c1ccc(O)cc1 + CN(NC(=O)CC(=O)NN(C)C(=S)c1ccccc1)C(=S)c1ccccc1 [STA4783] (first compound 10 µM, partner dose 0.03 µM)",24.9,47.9,34.3,17,71,67.2,83.2,10.9,56,63.3,16.8,30.9,78.5,28.2,94.3,23.5,17.8,60.3,27.1,71.1
"CC(C)(C)c1cnc(CSc2cnc(NC(=O)C3CCNCC3)s2)o1 + Oc1cc(-c2nc(-c3ccccc3)[nH]c2-c2ccncc2)ccc1Cl [L779450] (first compound 0.05 µM, partner dose 1 µM)",68.7,92.2,104,74.3,89,100,87.5,88.1,52.1,93.3,47.5,32.1,71.8,58.8,103,50.3,47.5,42.9,55.1,49.1
"CN(NC(=O)CC(=O)NN(C)C(=S)c1ccccc1)C(=S)c1ccccc1 + O=c1cc(-c2cccc3c2Sc2ccccc2S3)oc(N2CCOCC2)c1 [KU55933] (first compound 0.03 µM, partner dose 5 µM)",30.4,62.2,33.1,21.8,252,76.4,87,14.5,52.4,54,1.75,57.7,67.6,48,101,64.5,19,85.6,31.2,67.4
"Cc1ccc(NC(=O)c2cccc(N(C)C)c2)cc1NC(=O)c1ccc(O)cc1 + O=C1NC(=O)/C(=C/c2ccc(-c3ccc(F)cc3O)o2)S1 [AS252424] (first compound 10 µM, partner dose 5 µM)",78.9,84.5,87.3,112,108,75.3,88.1,81.1,83,101,102,85.6,104,83.8,96.3,112,94.2,101,89,82.3
"COc1cc2c(Oc3ccc4[nH]c(C)cc4c3F)ncnc2cc1OCCCN1CCCC1 [cediranib] + CCCCCCCCCCCC1=C(O)C(=O)C=C(O)C1=O [Embelin] (first compound 2 µM, partner dose 6 µM)",86.5,85.1,65.4,86.7,77.5,78.6,93.2,81.4,74.7,75.2,91.2,93.1,118,111,88.2,89,117,97.8,64.4,86.6

# Source: the supplement of paper PMC4604168 (melanoma cell lines)
